Measured values: PubChem BioAssay AID1745853 (National Center for Advancing Translational Sciences (NCATS), 2022)
Values joined by “and” are separate entries in the source; they are usually repeats but may differ in a detail not shown here. Equal values may be shown once. The list shows a part of the results. Shown are side measurements of this screen, not its main read-out; they come without a call.

What was measured:
Test in all cases: Primary Screen for Target Class Profiling of Small Molecule Inhibitors of Methyltransferases
[1] = biological target: Glycine N-methyltransferase (Homo sapiens) (UniProt Q14749); conditions: purified enzyme, MTase-Glo SAH luminescence; measured here: GNMT inhibition; at 40 µM; stronger effect = lower value
Procedure, shortened: (§1)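 Each enzyme was assayed with SAM and its substrate. SAH formation detected by MTase-Glo luminescence; single-point 40 uM screen[…].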

[2] = biological target: Guanidinoacetate N-methyltransferase (Homo sapiens) (UniProt Q14353); conditions: purified enzyme, MTase-Glo SAH luminescence; measured here: GAMT inhibition; at 40 µM; stronger effect = lower value
Procedure, shortened: as §1

[3] = biological target: Histamine N-methyltransferase (Homo sapiens) (UniProt P50135); conditions: purified enzyme, MTase-Glo SAH luminescence; measured here: HNMT inhibition; at 40 µM; stronger effect = lower value
Procedure, shortened: as §1

[4] = biological target: Nicotinamide N-methyltransferase (Homo sapiens) (UniProt P40261); conditions: purified enzyme, MTase-Glo SAH luminescence; measured here: NNMT inhibition; at 40 µM; stronger effect = lower value
Procedure, shortened: as §1

[5] = biological target: Phenylethanolamine N-methyltransferase (Homo sapiens) (UniProt P11086); conditions: purified enzyme, MTase-Glo SAH luminescence; measured here: PNMT inhibition; at 40 µM; stronger effect = lower value
Procedure, shortened: as §1
% is set by controls: 0 for no effect and ±100 for the full control effect.

Compound | activity change, negative = inhibition [1] [%] | activity change, negative = inhibition [2] | activity change, negative = inhibition [3] [%] | activity change, negative = inhibition [4] | activity change, negative = inhibition [5]
COc1ccc(NC(=O)N2CCn3cccc3C2Cc2ccccc2)c(OC)c1 (stereo not drawn) | 10.7 | 4.28% | -8.06 | 1.65% | -0.009%
CC(C)Cn1c(=O)c2ccccc2n2c(CCC(=O)NC3CC3)nnc12 | -1.07 | 1.03% | 3.13 | 10% | -0.527%
COCCOc1ccc2c(n1)CCN(C(=O)c1ccc(OC)c(OC)c1)C2 | -3.78 | 0.267% | -0.82 | -0.368% | 2.29%
CC(C)OCCCN1C(=O)c2ccc(-c3ccco3)n2CC1(C)C(=O)NC1CCCC1 (stereo not drawn) | -2.63 | 1.65% | 5.31 | 2.79% | -0.727%
O=C(CCCc1nnc2n3nc(-c4ccccc4)nc3c3ccccc3n12)NC1CCCCC1 | -3.2 | 1.55% | 2.39 | 5.98% | -2.53%
CCc1cccc(-n2nnnc2N2CCN(C(=O)NC(C)c3ccccc3)CC2)c1 (stereo not drawn) | -3.02 | 0.13% | -1.96 | -15.4% | -3.76%
COc1cc(C)c(C(=O)OC2C(C)OC(OC3CCC(C)C4C3C=C(C)C3/C(C)=C\CC/C(C)=C/C5(C)C=C(C(=O)O)C(C)CC56OC(=O)/C(=C(\O)C34C)C6=O)C(O)C2O)c(OC)c1 (stereo not drawn) | 1.22 | 7.37% | 10.2 | -7.04% | -0.206%
CC(C)CCn1c(=O)c2ccc(C(=O)NC(C)C)cc2n2c(=O)n(CC(=O)c3cccc(Cl)c3)nc12 | -0.662 | 4.59% | -2.99 | -0.537% | 0.336%
CCN1c2cc(C(=O)N3CCN(c4cccc(C)c4)CC3)ccc2C(=O)N2CCCCC21 (stereo not drawn) | -14.4 | -6.42% | -9.1 | -25.1% | 4.28%
CC[C@H]1CN(S(C)(=O)=O)CC[C@H]1CC(=O)NCc1ccco1 | -2.06 | 0.975% | -0.591 | -0.511% | 0.706%
Cc1ccc(N2C(=O)N[C@@H]3CCN(S(=O)(=O)c4ccc(Cl)cc4)[C@@H]3C2=O)cc1 | -9.7 | -8.21% | -5.67 | -15.2% | -14.7%
COc1ccccc1CN1C(=O)c2cc(-c3ccco3)nn2CC1(C)C(=O)NC1CCCCCC1 (stereo not drawn) | -1.24 | 2.22% | 0.235 | -3.79% | -4.91%
Cc1ccc(C)c(N2CCN(S(=O)(=O)c3ccc4c(c3)n(C)c(=O)n4C)CC2)c1 | -4.73 | 0% | 5.31 | 2.82% | 0.132%
CCCSCCCN1C(=O)c2cc3sc(CC)cc3n2CC1(C)C(=O)NC1CCCCCC1 (stereo not drawn) | 1.02 | 5.46% | 1.53 | 5.02% | -4.85%
CCCn1c(=O)c2ccc(C(=O)NC3CCCCC3)cc2n2c(=O)n(CC(=O)Nc3ccc(C)cc3)nc12 | 9.78 | 1.75% | 15 | 10.8% | 10.7%
CCN(CC)CCCNC(=O)c1cc2n(n1)CC(C)(C(=O)NCc1ccccc1)N(C)C2=O (stereo not drawn) | 3.84 | 0% | 1.43 | 3.66% | 0.797%
CCC(C)NC(=O)c1ccc2c(=O)n(C)c3nn(CC(=O)N(C)c4ccc(F)cc4)c(=O)n3c2c1 (stereo not drawn) | 6.39 | 0.62% | 4.49 | 9.14% | 6.37%
O=C(c1ccc(Cl)nc1)N1CCC(C(=O)N2CCC(N3CCCC3=O)CC2)CC1 | -2.13 | -5.76% | -0.611 | -6.08% | -2.58%

Compound | activity change, negative = inhibition [1] [%] | activity change, negative = inhibition [2] | activity change, negative = inhibition [3] [%] | activity change, negative = inhibition [4] | activity change, negative = inhibition [5]
CC1(O)CCCC2(C)C1CCC13CC(CO)C(CCC12)C3 (stereo not drawn) | -1.9 | -4.97% | 4.3 | -19.4% | -3.04%
CC(=O)SC1CC2=CC(=O)CC[C@]2(C)C2CC[C@@]3(C)C(CC[C@@]34CCC(=O)O4)C12 (stereo partly drawn) | -3.17 | 13.9% | 8.29 | -5.25% | 5.97%
CN(C)Cc1nnc(C2CCN(C(=O)CCNS(C)(=O)=O)CC2)n1C | -1.16 | -3.58% | -0.223 | -8.04% | -3.92%
COC(=O)c1ncn2c1C(=O)N(CCc1cccs1)C(C)(C(=O)NC1CCCCCC1)C2 (stereo not drawn) | 9.84 | 0% | 6.27 | 7.83% | 5.07%
CCOc1ccc(N2C(=O)c3cc4oc(C)cc4n3CC2(C)C(=O)NC2CCCCCC2)cc1 (stereo not drawn) | -1.17 | 0% | 6.98 | -0.68% | 0.563%
C[C@@H]1CC[C@]2(C(=O)O)CC[C@]3(C(=O)O)C(=CCC4[C@@]5(C)CC[C@H](O[C@@H]6O[C@@H](C)[C@H](O[C@@H]7O[C@H](CO)[C@@H](O)[C@H](O)[C@H]7O)[C@@H](O)[C@H]6O)C(C)(C)C5CC[C@]43C)C2[C@H]1C (stereo partly drawn) | 0.488 | 1.63% | 8.2 | -12.4% | 6.32%
Cc1cc2c(cc3n2CC(C)(C(=O)NC2CCCCC2)N(C2CCCCC2)C3=O)o1 (stereo not drawn) | 0.265 | 3.11% | -5.59 | -3.67% | -6.06%
Cc1csc(S(=O)(=O)N2CC[C@@H]3[C@@H](CCC(=O)N3CCN)C2)c1 | -4.09 | -3.35% | -1.38 | -12.2% | 5.29%
COc1ccc(NC(=O)CSc2nnc3n(CC(C)C)c(=O)c4ccccc4n23)cc1OC | -8.86 | 0.799% | 3.56 | -3.38% | -2.46%
CC(C)CNC(=O)c1ccc2c(=O)n(Cc3ccccc3)c3nn(C)c(=O)n3c2c1 | -3.35 | 1.15% | 2.14 | -7.53% | -4.05%
COc1cc(CCc2cc(NC(=O)c3ccc(N4C[C@@H](C)N[C@@H](C)C4)cc3)n[nH]2)cc(OC)c1 | -5.9 | 9.9% and 12.4% | -22.7 | -5.92% and -9.48% | -1.47% and 3.72%
CCCn1c(=O)c2cc(Cl)ccc2n2c(=O)n(CC(=O)Nc3ccc(OC)c(OC)c3)nc12 | 2.54 | 0% | 11.2 | 6.86% | 2.91%
C1CCC(COCCc2noc(C3CNC3)n2)C1 | -21.9 | -12.3% | -5.7 | -16.2% | -8.93%
CCC(CNc1nc(CCN)nc2ccccc12)N1CCN(C)CC1 (stereo not drawn) | -5.33 | -6.29% | -16.3 | -11.6% | -8.53%
Cc1cc(OCCCS(C)(=O)=O)cc(C)c1-c1cccc(COc2ccc3c(c2)OC[C@H]3CC(=O)O)c1 |  | 7.16% |  | -23.6% | -6.31%
C=C[C@H]1[C@H](O[C@@H]2O[C@H](CO)[C@@H](O)[C@H](OC(=O)/C=C/c3ccc(O)c(OC)c3)[C@H]2O)OC=C2C(=O)OCC[C@]21O | 0 | 3.87% | 3.25 | -8.03% | 6.37%
CCN(CC)C(=S)SSC(=S)N(CC)CC | -52.2 | 7.24% | 2.75 | -5.37% | 4.27%
COc1ccccc1CN1C(=O)c2ccccc2CC1(C)C(=O)NC1CCCCC1 (stereo not drawn) | -3.69 | 6.78% | 1.58 | -2.53% | -3.43%
